Here are results for one molecule from US20140105855A1 (published 2014).

The target in this experiment is T1, preformed IL-17RC-IL-17F complex (IL-17F captured by immobilised IL-17RC) (;human, UniProt Q8NAC3 21-538; Q96PD4 31-163, biotin on the C-terminal BirA ligase tag).
T1 chain 1: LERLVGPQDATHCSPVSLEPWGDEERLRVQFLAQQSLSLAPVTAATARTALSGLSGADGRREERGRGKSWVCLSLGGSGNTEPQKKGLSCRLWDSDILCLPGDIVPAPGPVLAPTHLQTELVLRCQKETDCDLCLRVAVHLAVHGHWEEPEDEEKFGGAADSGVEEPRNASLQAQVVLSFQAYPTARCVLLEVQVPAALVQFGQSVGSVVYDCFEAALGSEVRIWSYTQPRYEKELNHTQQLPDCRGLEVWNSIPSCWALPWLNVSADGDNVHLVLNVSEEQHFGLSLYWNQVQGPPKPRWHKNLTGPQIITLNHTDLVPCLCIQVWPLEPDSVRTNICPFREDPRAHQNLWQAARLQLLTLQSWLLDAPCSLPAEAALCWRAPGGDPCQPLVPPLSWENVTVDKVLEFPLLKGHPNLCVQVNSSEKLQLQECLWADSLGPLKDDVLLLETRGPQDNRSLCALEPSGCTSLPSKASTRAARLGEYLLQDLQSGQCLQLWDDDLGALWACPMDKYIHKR
T1 chain 2: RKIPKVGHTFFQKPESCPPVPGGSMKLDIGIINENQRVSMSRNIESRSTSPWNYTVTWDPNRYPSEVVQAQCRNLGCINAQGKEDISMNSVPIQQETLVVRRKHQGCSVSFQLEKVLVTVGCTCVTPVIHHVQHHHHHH
Description: SPR; second receptor binding to preformed complex. On the technique in general: SPR reads the build-up and loss of mass on a sensor chip optically.

B1: IL-17RA extracellular domain (ECD) (receptor)
chain: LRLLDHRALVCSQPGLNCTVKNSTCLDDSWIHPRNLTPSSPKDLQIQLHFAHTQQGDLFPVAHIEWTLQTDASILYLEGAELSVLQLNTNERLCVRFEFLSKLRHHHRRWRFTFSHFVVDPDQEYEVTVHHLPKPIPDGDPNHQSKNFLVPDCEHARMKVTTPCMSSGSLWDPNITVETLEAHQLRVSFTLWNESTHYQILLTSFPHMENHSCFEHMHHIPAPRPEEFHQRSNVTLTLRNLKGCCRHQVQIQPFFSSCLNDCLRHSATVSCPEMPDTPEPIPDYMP
B1: the affinity, expressed as Kd, was 23.8 µM.

By Kd is commonly meant the concentration at which binding is half-saturated. Higher therefore signals a looser complex.
